The list shows a part of the results. At the low end of the ranking the order means little.
Target: SIX1-Q177R homeodomain (UniProt Q15475)
Assay: universal protein binding microarray
Settings: Universal all-10-mer PBM (8x60K, AMADID 030236), 300 nM GST-tagged protein, Alexa Fluor 488 anti-GST; buffer, salt, pH and temperature not stated; high values mean tight binding; most listed sequences are background and not binding sites; double strand, one strand shown

For CATCGCCG, which binding signal is on record?
Its binding signal is 0.0345 E-score.

How did the binding signal turn out when AATGTGGA was run?
The binding signal was -0.084 E-score.

ATAGACAA was tested. Which binding signal did it give?
Its binding signal is 0.00567 E-score.

ATAATCGA was tested. Which binding signal did it give?
Its binding signal is 0.0378 E-score.

ACTTAGAG was tested. Which binding signal did it give?
Its binding signal is 0.0563 E-score.

Which binding signal does the source give for AAACCACA here?
The binding signal was 0.216 E-score.

ATTATCGG was tested. Which binding signal did it give?
The binding signal was 0.0376 E-score.

Which binding signal does the source give for AGAAATTC here?
The binding signal was -0.0218 E-score.

For GATATGCC, which binding signal is on record?
The binding signal was -0.26 E-score.

With ACAGACGA as the sequence, how does the binding signal read?
Its binding signal is 0.0172 E-score.

For AGGTAGGA, which binding signal is on record?
Its binding signal is -0.0607 E-score.

For CTCTTCGA, which binding signal is on record?
Its binding signal is -0.166 E-score.

How did the binding signal turn out when CAACTTAA was run?
The binding signal was -0.221 E-score.

How did the binding signal turn out when CTGACCTC was run?
Its binding signal is 0.048 E-score.

For ATCCTAAT, which binding signal is on record?
The binding signal was -0.247 E-score.

Which binding signal does the source give for AATTAGTC here?
The binding signal was -0.04 E-score.

TCAACGGA was tested. Which binding signal did it give?
Its binding signal is -0.0392 E-score.

How did the binding signal turn out when TCGATCAA was run?
Its binding signal is -0.216 E-score.

How did the binding signal turn out when AGACAGTA was run?
Its binding signal is -0.088 E-score.

CGATCTTC was tested. Which binding signal did it give?
The binding signal was -0.134 E-score.

How did the binding signal turn out when GCAACACA was run?
The binding signal was 0.14 E-score.

With CCCCACTC as the sequence, how does the binding signal read?
Its binding signal is 0.18 E-score.

AGAACTAG was tested. Which binding signal did it give?
Its binding signal is -0.155 E-score.

Which binding signal does the source give for AGCGTCAC here?
Its binding signal is 0.0987 E-score.

With GCCCATAC as the sequence, how does the binding signal read?
Its binding signal is 0.07 E-score.

With ATAGGATC as the sequence, how does the binding signal read?
The binding signal was -0.02 E-score.

For ATGTTACA, which binding signal is on record?
The binding signal was 0.177 E-score.

How did the binding signal turn out when CCCCTGCG was run?
Its binding signal is 0.0624 E-score.

GAACGACC was tested. Which binding signal did it give?
Its binding signal is -0.0817 E-score.

With ATGTAATG as the sequence, how does the binding signal read?
The binding signal was -0.2 E-score.

For GATAACCC, which binding signal is on record?
The binding signal was 0.19 E-score.

How did the binding signal turn out when GCCCCGGC was run?
The binding signal was -0.0482 E-score.

Which binding signal does the source give for GACGAACC here?
The binding signal was -0.129 E-score.

Which binding signal does the source give for AAGTCTAT here?
The binding signal was -0.245 E-score.

CCCAGAGC was tested. Which binding signal did it give?
The binding signal was -0.0687 E-score.

With CCATGCCG as the sequence, how does the binding signal read?
Its binding signal is -0.0786 E-score.

How did the binding signal turn out when AAGCGGTG was run?
Its binding signal is 0.214 E-score.

Which binding signal does the source give for GACACATA here?
The binding signal was 0.234 E-score.

With CTGCACAG as the sequence, how does the binding signal read?
Its binding signal is -0.149 E-score.

Which binding signal does the source give for GACTTTGC here?
The binding signal was -0.248 E-score.

For GTATGGCA, which binding signal is on record?
The binding signal was -0.17 E-score.

How did the binding signal turn out when AGACACAT was run?
Its binding signal is 0.0906 E-score.

ACCGTCGG was tested. Which binding signal did it give?
Its binding signal is 0.0295 E-score.

Which binding signal does the source give for AGGTTGGA here?
The binding signal was -0.0478 E-score.

With GACCGGTA as the sequence, how does the binding signal read?
Its binding signal is -0.057 E-score.

With ACAAATAA as the sequence, how does the binding signal read?
Its binding signal is -0.0921 E-score.

How did the binding signal turn out when CCTATCAA was run?
The binding signal was -0.0763 E-score.

For ACCTCTAC, which binding signal is on record?
Its binding signal is 0.151 E-score.

How did the binding signal turn out when CATAAACG was run?
Its binding signal is -0.0362 E-score.

For ATTGTGAC, which binding signal is on record?
Its binding signal is 0.119 E-score.

With GCCAAGGC as the sequence, how does the binding signal read?
Its binding signal is -0.161 E-score.

With GATGTCGC as the sequence, how does the binding signal read?
Its binding signal is -0.29 E-score.

With GCTATGCA as the sequence, how does the binding signal read?
Its binding signal is -0.0598 E-score.

Which binding signal does the source give for CCCACTAA here?
The binding signal was 0.124 E-score.

For AAGGAAAA, which binding signal is on record?
Its binding signal is -0.211 E-score.

With CATATCTC as the sequence, how does the binding signal read?
The binding signal was -0.228 E-score.

With CCCGCCAG as the sequence, how does the binding signal read?
Its binding signal is 0.024 E-score.

For ATGTCTAC, which binding signal is on record?
The binding signal was 0.0116 E-score.

How did the binding signal turn out when AAGAGCTT was run?
The binding signal was 0.0548 E-score.

Which binding signal does the source give for CGACGAGC here?
Its binding signal is -0.138 E-score.

GGGTCAAC was tested. Which binding signal did it give?
The binding signal was 0.223 E-score.

How did the binding signal turn out when CTACTCCA was run?
The binding signal was 0.242 E-score.

With CGTGGCAC as the sequence, how does the binding signal read?
The binding signal was 0.0589 E-score.

Which binding signal does the source give for AGGCTATG here?
The binding signal was 0.017 E-score.

With ACGAAACT as the sequence, how does the binding signal read?
Its binding signal is -0.108 E-score.

How did the binding signal turn out when CTCTGTTC was run?
The binding signal was -0.0889 E-score.

With ATAGGCAC as the sequence, how does the binding signal read?
The binding signal was -0.106 E-score.

Which binding signal does the source give for AAATACTG here?
Its binding signal is -0.201 E-score.

For GGACCATA, which binding signal is on record?
The binding signal was -0.238 E-score.

Which binding signal does the source give for TCGCGAAA here?
Its binding signal is -0.105 E-score.

How did the binding signal turn out when GACTGATA was run?
The binding signal was 0.045 E-score.

CTCTGGCC was tested. Which binding signal did it give?
The binding signal was 0.0156 E-score.

AGCGCGCG was tested. Which binding signal did it give?
The binding signal was -0.103 E-score.

With AGCACCCA as the sequence, how does the binding signal read?
The binding signal was 0.159 E-score.

AGCCCAGG was tested. Which binding signal did it give?
The binding signal was -0.29 E-score.

For CAAAAGGC, which binding signal is on record?
The binding signal was -0.329 E-score.

Which binding signal does the source give for GCCGCCCC here?
The binding signal was 0.066 E-score.

Which binding signal does the source give for GGCGCTAA here?
Its binding signal is -0.201 E-score.

For GCATCCCA, which binding signal is on record?
Its binding signal is -0.258 E-score.

With ACCACTCT as the sequence, how does the binding signal read?
The binding signal was 0.0376 E-score.

How did the binding signal turn out when ACTGAGTA was run?
Its binding signal is -0.16 E-score.

With CTTGTGAC as the sequence, how does the binding signal read?
The binding signal was -0.0696 E-score.

Which binding signal does the source give for CTATTACA here?
The binding signal was 0.215 E-score.

Which binding signal does the source give for ACAGCCAA here?
Its binding signal is -0.166 E-score.

Which binding signal does the source give for AACTAACC here?
The binding signal was -0.0214 E-score.

With AGGGAGCC as the sequence, how does the binding signal read?
Its binding signal is -0.108 E-score.

How did the binding signal turn out when AAAGAAGA was run?
Its binding signal is -0.0713 E-score.

Which binding signal does the source give for AAGCATGT here?
The binding signal was -0.229 E-score.

For CAACGCGA, which binding signal is on record?
The binding signal was -0.0722 E-score.

Which binding signal does the source give for TAGGCTCA here?
The binding signal was -0.223 E-score.

AGAATCAC was tested. Which binding signal did it give?
The binding signal was -0.117 E-score.

CACATAAG was tested. Which binding signal did it give?
Its binding signal is -0.112 E-score.

GGCTTAAC was tested. Which binding signal did it give?
Its binding signal is 0.0735 E-score.

For AAAACTCA, which binding signal is on record?
Its binding signal is -0.155 E-score.

For GTCGGACA, which binding signal is on record?
The binding signal was 0.101 E-score.

ATCTCGCA was tested. Which binding signal did it give?
Its binding signal is -0.00201 E-score.

GCAATCCA was tested. Which binding signal did it give?
Its binding signal is -0.158 E-score.

Which binding signal does the source give for CGCTGATA here?
Its binding signal is 0.111 E-score.

With AGGTTCAA as the sequence, how does the binding signal read?
The binding signal was 0.0388 E-score.

CATCGCGA was tested. Which binding signal did it give?
The binding signal was -0.11 E-score.

Which binding signal does the source give for AGAACCAC here?
Its binding signal is -0.121 E-score.

Which binding signal does the source give for AAACTGAA here?
Its binding signal is -0.164 E-score.

How did the binding signal turn out when CTATGGCA was run?
The binding signal was -0.0793 E-score.

For GACCTACC, which binding signal is on record?
The binding signal was 0.0321 E-score.

AGTATATA was tested. Which binding signal did it give?
The binding signal was 0.119 E-score.

How did the binding signal turn out when CATAGGGA was run?
The binding signal was 0.0903 E-score.

With CAGTCATG as the sequence, how does the binding signal read?
Its binding signal is -0.143 E-score.

For AATATCTA, which binding signal is on record?
The binding signal was -0.245 E-score.

How did the binding signal turn out when CTTAGCTC was run?
The binding signal was -0.0536 E-score.

How did the binding signal turn out when CGATGCAC was run?
The binding signal was -0.0447 E-score.

From PMC10668032
